The IC50 comes from the fitted curve, where viability falls to half of the control; a limit (>, <) means that the fit lies beyond the doses tested. AUC sums up the same curve from the lowest dose to the 256-fold higher top dose: 1 means no effect, lower means more sensitive. For part of these data: Any top dose called inferred was calculated from the reported fits.
Key:
Assay in all cases: Viability of human cancer cell lines after 72 h of drug (GDSC screen)
[1] = compound: Cn1nnc2c(C(N)=O)ncn2c1=O [Temozolomide]; conditions: top dose 30 µM
Method: (§1)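 Human cancer cell lines in 384-well plates, medium with 10% serum, drug for 72 h over a 256-fold dose range (nine 2-fold or five 4-fold steps up to the top dose). Adherent lines were fixed and stained with the nucleic acid dye Syto60, suspension lines read with resazurin; signal relative to control wells, capped at 0 and 100%. One two-parameter sigmoid per drug and line, fitted in a mixed model over all curves with the slope shared within a line.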

[2] = compound: Oc1ccc2ccccc2c1SSc1c(O)ccc2ccccc12 [IPA-3]; conditions: top dose 32 µM; top dose inferred
Method: as §1

[3] = compound: COc1cc2c(Oc3ccc(NC(=O)C4(C(=O)Nc5ccc(F)cc5)CC4)cc3F)ccnc2cc1OCCCN1CCOCC1 [XL-880]; conditions: top dose 5.12 µM; top dose inferred
Method: as §1

[4] = compound: O=C(NOCC1CC1)c1ccc(F)c(F)c1Nc1ccc(I)cc1Cl [CI-1040]; conditions: top dose 10 µM; top dose inferred
Method: as §1

[5] = compound: CN1CCc2c(c3ccccc3n2Cc2ccc(C(=O)NO)cc2)C1 [Tubastatin A]; conditions: top dose 20 µM
Method: as §1

[6] = compound: CCCC[C@@H](C=O)NC(=O)[C@H](CC(C)C)NC(=O)[C@H](CC(C)C)NC(=O)OCc1ccccc1 [Z-LLNle-CHO]; conditions: top dose 2.56 µM; top dose inferred
Method: as §1

[7] = compound: CCC(=O)N1CCN(c2ccc(-n3c(=O)ccc4cnc5ccc(-c6cnc7ccccc7c6)cc5c43)cc2C(F)(F)F)CC1 [JW-7-52-1]; conditions: top dose 1.2 µM; top dose inferred
Method: as §1

[8] = compound: CN(C)C/C=C/C(=O)Nc1ccc(C(=O)Nc2cccc(Nc3nccc(-c4cccnc4)n3)c2)cc1 [ZG-10]; conditions: top dose 10 µM; top dose inferred
Method: as §1

TE-11 (oesophagus, adherent) gave an AUC [1] of 0.988, an IC50 [1] greater than 30 µM and an AUC [2] of 0.974. For the same cell line, the IC50 [2] was greater than 32 µM, the AUC [3] was 0.75 and the IC50 [3] was 1.55 µM. The AUC [4] was 0.881, the IC50 [4] was 8.93 µM and the AUC [5] was 0.99. For the same cell line, the IC50 [5] was greater than 20 µM, the AUC [6] was 0.834 and the IC50 [6] was 1.47 µM.

Work on “MOLT-13 (T-cell lymphoblastic leukaemia, suspension)” yielded an AUC [1] of 0.97, an IC50 [1] greater than 30 µM and an AUC [3] of 0.494. It also gave an IC50 [3] of 0.309 µM, an AUC [7] of 0.711 and an IC50 [7] of 0.271 µM. The AUC [4] was 0.82, the IC50 [4] was 4.85 µM and the AUC [5] was 0.695. For the same cell line, the IC50 [5] was 4.09 µM.

HOP-62 (lung adenocarcinoma, adherent) showed an AUC [1] of 0.984, an IC50 [1] greater than 30 µM and an AUC [2] of 0.833. For the same cell line, the IC50 [2] was 20.6 µM, the AUC [3] was 0.615 and the IC50 [3] was 0.662 µM. The AUC [4] was 0.833, the IC50 [4] was 6.4 µM and the AUC [5] was 0.883. The IC50 [5] was greater than 20 µM, the AUC [6] was 0.796 and the IC50 [6] was 1.2 µM.

Cell Line RPMI-8226 (myeloma, suspension) has an AUC [1] of 0.985, an IC50 [1] greater than 30 µM and an AUC [2] of 0.792. It also gave an IC50 [2] of 12.4 µM, an AUC [3] of 0.828 and an IC50 [3] of 2.61 µM. It also gave an AUC [7] of 0.202, an IC50 [7] of 0.0116 µM and an AUC [4] of 0.692. It also gave an IC50 [4] of 1.99 µM, an AUC [6] of 0.688 and an IC50 [6] of 0.496 µM.

For A388 (skin, adherent), the AUC [1] was 0.98, the IC50 [1] was greater than 30 µM and the AUC [2] was 0.898. The IC50 [2] was greater than 32 µM, the AUC [8] was 0.772 and the IC50 [8] was 4.42 µM. It also gave an AUC [3] of 0.73, an IC50 [3] of 1.62 µM and an AUC [4] of 0.856. The IC50 [4] was 9.98 µM, the AUC [5] was 0.983 and the IC50 [5] was greater than 20 µM. For the same cell line, the AUC [6] was 0.743 and the IC50 [6] was 0.896 µM.

For HT-144 (melanoma, adherent), the AUC [1] was 0.982, the IC50 [1] was greater than 30 µM and the AUC [2] was 0.781. The IC50 [2] was 14.9 µM, the AUC [3] was 0.82 and the IC50 [3] was 3.4 µM. For the same cell line, the AUC [7] was 0.26, the IC50 [7] was 0.0141 µM and the AUC [5] was 0.968. For the same cell line, the IC50 [5] was greater than 20 µM, the AUC [6] was 0.665 and the IC50 [6] was 0.488 µM.

In the case of MV-4-11 (leukaemia, suspension), the AUC [1] is reported as 0.989, the IC50 [1] is reported as greater than 30 µM and the AUC [2] is reported as 0.742. For the same cell line, the IC50 [2] was 8.4 µM, the AUC [7] was 0.504 and the IC50 [7] was 0.0768 µM. It also gave an AUC [4] of 0.678, an IC50 [4] of 1.77 µM and an AUC [6] of 0.733. The IC50 [6] was 0.637 µM.

CP67-MEL (melanoma, adherent) was tested, and the AUC [6] was 0.576 and the IC50 [6] was 0.301 µM.

Hs-578-T (breast, adherent) gave an AUC [1] of 0.983, an IC50 [1] greater than 30 µM and an AUC [2] of 0.942. It also gave an IC50 [2] greater than 32 µM, an AUC [8] of 0.784 and an IC50 [8] of 4.54 µM. It also gave an AUC [3] of 0.77, an IC50 [3] of 2.06 µM and an AUC [4] of 0.751. It also gave an IC50 [4] of 3.48 µM, an AUC [5] of 0.987 and an IC50 [5] greater than 20 µM.

Work on “RERF-LC-KJ (lung adenocarcinoma, adherent)” yielded an AUC [1] of 0.981, an IC50 [1] greater than 30 µM and an AUC [2] of 0.852. For the same cell line, the IC50 [2] was 25.8 µM, the AUC [8] was 0.825 and the IC50 [8] was 6.21 µM. The AUC [3] was 0.801, the IC50 [3] was 2.58 µM and the AUC [4] was 0.871. It also gave an IC50 [4] of 9.95 µM, an AUC [5] of 0.985 and an IC50 [5] greater than 20 µM.

BICR10 (head and neck, adherent) was tested, and the AUC [1] was 0.969, the IC50 [1] was greater than 30 µM and the AUC [2] was 0.902. For the same cell line, the IC50 [2] was greater than 32 µM, the AUC [8] was 0.883 and the IC50 [8] was greater than 10 µM. It also gave an AUC [3] of 0.77, an IC50 [3] of 2.25 µM and an AUC [4] of 0.908. For the same cell line, the IC50 [4] was greater than 10 µM, the AUC [5] was 0.985 and the IC50 [5] was greater than 20 µM.

Reference: the supplement of paper PMC4967469
